Source: PubChem BioAssay AID602310 (National Center for Advancing Translational Sciences (NCATS), 2012)
The campaign covered roughly 410,000 compounds. About 310 (0.076%) were called active. Inconclusive results, whose numbers are uncertain, are shown with a selection of clear calls. Calls follow the shape of the dose curve; as a rule, active = well fitted curve in the direction sought with a large enough effect; inconclusive = small, poorly fitted or top-dose-only effect; inactive = flat fitted curve, though single readings scatter. Where the call is inconclusive, the potency comes from a doubtful curve fit.

What follows are compounds tested against DNA dC->dU-editing enzyme APOBEC-3G (Homo sapiens) (UniProt Q9HC16) (assay: qHTS for Inhibitors of Vif-A3G Interactions: qHTS). Conditions: HeLa A3G-eYFP + Vif (tagged APOBEC3G with the HIV-1 protein that degrades it), YFP fluorescence, overnight; series mostly up to 46.1 µM; activity, negative = active: at the top concentration.
Sequence of UniProt Q9HC16 (Q9HC16 whole entry, looked up): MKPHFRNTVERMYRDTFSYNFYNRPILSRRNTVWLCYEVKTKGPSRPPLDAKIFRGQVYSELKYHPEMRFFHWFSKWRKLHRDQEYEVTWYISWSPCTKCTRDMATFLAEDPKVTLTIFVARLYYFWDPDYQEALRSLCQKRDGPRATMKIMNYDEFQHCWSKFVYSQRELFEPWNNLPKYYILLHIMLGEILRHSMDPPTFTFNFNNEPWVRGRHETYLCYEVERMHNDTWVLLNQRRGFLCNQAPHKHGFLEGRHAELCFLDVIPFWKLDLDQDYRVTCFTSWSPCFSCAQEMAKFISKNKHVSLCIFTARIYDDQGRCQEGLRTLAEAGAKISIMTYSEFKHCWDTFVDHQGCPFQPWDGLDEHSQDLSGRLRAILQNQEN
Summary of the method: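 HeLa cells stably expressing Vif and C-terminally eYFP-tagged A3G, seeded overnight at 37 deg C, then exposed to compound by pintool overnight at 37 deg C. Rise in yellow fluorescence (Ex 488/Em 500-530, Acumen) marks blocked Vif-driven A3G degradation.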
% is scaled to controls: 0 for no effect and ±100 for the full control effect; potency is read from the fitted curve at half-maximal effect; tags tell the direction and shape of the fitted curve.
Also: nearly all actives have a fitted effect of over 60% in size.
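For activity, negative = active in this document: hits raise eYFP signal because A3G escapes Vif-driven loss.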

| SMILES | Potency | activity, negative = active |
| --- | --- | --- |
| COc1ccc(-n2c(C)nc3cc(C(=O)N4CCC5(CC4)OCCO5)ccc32)cc1 | inconclusive: 25.1 µM [inhibitor, single point] |  |
| COc1ccc(-c2ccc(OC)c(OC)c2OC)cc1 | inconclusive: 1.41 µM [inhibitor, full curve, poor fit] |  |
| O=C1NC(=S)NC(=O)C1=Cc1cccn1-c1ccc(O)cc1 | inconclusive: 35.5 µM [inhibitor, single point] |  |
| CC(=O)OC12COC1CC(O)C1(C)C(=O)C(O)C3=C(C)C(O)CC(O)(C(OC(=O)c4ccccc4)C21)C3(C)C (configuration not stated) | inconclusive: 0.794 µM [inhibitor, full curve] |  |
| Cc1ccc(N2C(=O)NC(=O)/C(=C/C=C/c3ccco3)C2=O)cc1 | inconclusive: 3.16 µM [inhibitor, full curve, poor fit] |  |
| N#CC(C#N)=Cc1ccc(C=C(C#N)C#N)cc1 | inconclusive: 35.5 µM [inhibitor, single point] |  |
| COc1cc2c(c(OC)c1OC)-c1ccc(O)c(=O)cc1[C@@H](NC(C)=O)CC2 | inconclusive: 6.31 µM [inhibitor, full curve, poor fit] |  |
| CN1C(=O)/C(=C/c2ccc(N3CCCCCC3)o2)C(=O)NC1=S | inconclusive: 7.08 µM [inhibitor, partial curve, poor fit] |  |
| O=C(Nc1ccc(Cl)c(Cl)c1)c1ccco1 |  | inactive: -5.51% |
| COc1ccc2nc(NC(=O)CCc3nc(C4=CCN(C)CC4)no3)sc2c1 |  | inactive: -5.25% |
| Cc1ccc(C)c(Cn2c(C(=O)O)c(C=O)c3ccccc32)c1 | inconclusive: 11.2 µM [inhibitor, single point] |  |
| COc1cccc(NP(=O)(Oc2ccccc2)Oc2ccccc2)c1 | inconclusive: 3.55 µM [inhibitor, single point] |  |
| CN(C)C(=S)SSC(=S)N(C)C | inconclusive: 1.12 µM [inhibitor, full curve, poor fit] |  |
| O=C(O)CCn1cc(C=C2C(=O)NC(=S)NC2=O)c(-c2cccc(Cl)c2)n1 |  | inactive: 0.332% |
| O=c1[nH]c(=O)n(C2CCCCC2)c(O)c1/C=C/C=Nc1ccccc1 | inconclusive: 6.31 µM [inhibitor, single point] |  |
| COC(=O)C1=C(c2ccc(OCc3ccccc3)cc2)C[C@@H]2CC[C@H]1N2C(=O)NC1CCN(Cc2ccccc2)CC1 | inconclusive: 35.5 µM [inhibitor, single point] |  |
| CC1=CC(=C2C(=O)NC(=O)NC2=O)C=C(C(F)(F)F)N1Cc1ccccc1 | inconclusive: 20 µM [inhibitor, single point] |  |
